Laboratory results published in the supplement of paper PMC4723716.
± gives the uncertainty stated by the source. The full ranking holds about 9,900 compounds; the median of “viability index relative to DMSO control” is about 1, and the lowest 2% start at about 0.85. Some of the results follow.

System: Plasmodium falciparum NF54 stage V gametocytes
Test: viability index relative to DMSO control (fraction); higher = less gametocyte killing
Details: 2.5 µM, incubation time: 72 h
In short: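 P. falciparum NF54 stage V gametocytes in serum-free screening medium (0.75% gametocytemia, 1.25% hematocrit, 10 µl) were incubated with compound at 2.5 µM in 1,536-well plates for 72 hr at 37°C under low oxygen. Then 3 µl of 2.5 µM MitoTracker Red CMXRos plus 0.13% saponin was added for one to two hours. One field per well was imaged, 20–70 µm2 red particles were counted, and the viability index was the count divided by the plate mean of DMSO wells.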

[1] = library set: Broad Institute DOS

Row | Structure (SMILES) | viability index [1] | viability index (library set: Broad Institute Blood Stage)
1 | Cc1noc(C)c1S(=O)(=O)Nc1ccc2c(c1)C(=O)N([C@H](C)CO)C[C@@H](C)[C@@H](CN(C)C(=O)Nc1cccc3ccccc13)OCCCC[C@@H](C)O2 | 0.968 ± 0.077 | –
2 | O=C([C@H]1[C@H](CO)[C@H]2Cn3c(cccc3=O)[C@H]2N1C(=O)C1CCCCC1)N1CCOCC1 | 1.09 ± 0.026 | –
3 | COc1ccc2c3c([C@@H](CO)N(C)C[C@]33CN(C3)C(=O)C3CCC3)n(C)c2c1 | 1.07 ± 0.034 | –
4 | COCC(=O)Nc1ccc2c(c1)C(=O)N(C)[C@@H]1CC[C@H](CC(=O)N3CCc4ccccc4C3)O[C@@H]1CO2 | 1.0023 ± 0.00098 | –
5 | CO[C@H]1CC[C@H]2CCN(C)C(=O)[C@@H](C)N(C)C(=O)c3cccc(C#N)c3OC[C@@H]1O2 | 1 ± 0.07 | –
6 | CN1C(=O)c2cc(NC(=O)c3ccc4c(c3)OCO4)ccc2OC[C@@H]2O[C@H](CC(=O)O)CC[C@@H]21 | 1.17 ± 0.094 | –
7 | C[C@H](CO)N1C[C@H](C)[C@@H](CN(C)C(=O)Nc2ccc3c(c2)OCO3)Oc2ccc(NC(=O)Nc3ccc(C(F)(F)F)cc3)cc2CC1=O | – | 0.755 ± 0.061
8 | C[C@@H]1CN([C@@H](C)CO)C(=O)CCCn2nncc2CO[C@@H]1CN(C)C(=O)Nc1ccc2c(c1)OCCO2 | 1.13 ± 0.017 | –
9 | Cc1noc(C)c1NC(=O)N(C)C[C@H]1OCc2ccccc2-c2c(n(C)c3ccccc23)C(=O)N([C@H](C)CO)C[C@@H]1C | 1.04 ± 0.016 | –
10 | O=C(C[C@@H]1C[C@@H]2c3cc(NC(=O)C4CCC4)ccc3O[C@@H]2[C@H](CO)O1)NC1CCCC1 | 1.03 ± 0.051 | –
11 | N#Cc1cccc(-c2ccc([C@H]3[C@@H]4CN(C(=O)Nc5ccc(C(F)(F)F)cc5)C[C@H]3N4)cc2)c1 | 0.985 ± 0.12 | –
12 | CC(C)NC(=O)Nc1ccc2c(c1)C(=O)N([C@@H](C)CO)C[C@@H](C)[C@@H](CN(C)C(=O)C1CCCCC1)OCCCC[C@H](C)O2 | 1.1 ± 0.11 | –
13 | CC(C)NC(=O)N(C)C[C@@H]1Oc2ccc(NC(=O)Cc3ccccc3)cc2CC(=O)N([C@H](C)CO)C[C@@H]1C | 0.981 ± 0.031 | –
14 | COc1ccccc1-c1ccc([C@H]2[C@H]3CN(C(=O)c4cccnc4)CCCCN3[C@H]2CO)cc1 | 1.02 ± 0.058 | –
15 | C[C@@H]1CN([C@@H](C)CO)C(=O)c2cc(C#Cc3ccccc3)cnc2O[C@@H]1CN(C)C(=O)c1ccccc1 | 1.08 ± 0.028 | –
16 | COc1ccccc1NC(=O)N[C@@H]1CC[C@H](CCNS(=O)(=O)c2ccc(Cl)cc2)O[C@H]1CO | 1.05 ± 0.063 | –
17 | Cc1ccccc1-c1cnc2c(c1)C(=O)N([C@@H](C)CO)C[C@H](C)[C@@H](CN(C)Cc1ccccc1F)O2 | 1 ± 0.013 | –
18 | CN1[C@H](C(=O)NCc2ccccn2)[C@@H](CO)[C@@H]2Cn3c(ccc(-c4ccc(F)cc4)c3=O)[C@@H]21 | 1.01 ± 0.043 | –

Row | Structure (SMILES) | viability index [1] | viability index (library set: Broad Institute Blood Stage)
19 | COCC(=O)N1CC[C@H]2[C@H](CO)Nc3ccc(-c4ccc(C(=O)N(C)C)cc4)cc3[C@H]21 | 1.09 ± 0.071 | –
20 | COC(=O)C[C@H]1C[C@@H]2c3cc(N)ccc3O[C@@H]2[C@H](CO)O1 | 1.1 ± 0.031 | –
21 | O=C(C[C@H]1CC[C@@H]2[C@H](COC[C@@H](O)CN2C(=O)Nc2ccccc2)O1)NCc1ccccc1F | 1.03 ± 0.084 | –
22 | N#C[C@@H]1[C@@H](c2ccccc2C2=CCCCC2)[C@H](CO)N1S(=O)(=O)c1ccccc1 | 1.05 ± 0.1 | –
23 | Cc1noc(C)c1NC(=O)N(C)C[C@@H]1OCc2cnnn2CCCC(=O)N([C@H](C)CO)C[C@@H]1C | 1.09 ± 0.08 | –
24 | N#Cc1cccc(-c2ccc([C@@H]3[C@H]4CNC[C@@H]3N4C(=O)Nc3cccc(F)c3)cc2)c1 | 0.986 ± 0.035 | –
25 | COc1ccc2c3c([C@@H](CO)NC[C@]33CCN(CC3)C(=O)Nc3ccc4OCOc4c3)n(C)c2c1 | 1.01 ± 0.0042 | –
26 | O=C(C[C@@H]1C[C@H]2c3cc(NC(=O)C4CCC4)ccc3O[C@H]2[C@H](CO)O1)NC1CCCC1 | 1.08 ± 0.03 | –
27 | CC(=O)NC[C@H]1[C@@H](c2ccc(C#Cc3ccccc3F)cc2)[C@@H](CO)N1C(C)=O | 1.05 ± 0.002 | –
28 | Cc1noc(C)c1S(=O)(=O)N(C)C[C@H]1OCCCC[C@@H](C)Oc2ccc(NS(=O)(=O)c3cn(C)cn3)cc2C(=O)N([C@@H](C)CO)C[C@@H]1C | 1.1498 ± 0.0011 | –
29 | C[C@H]1CN([C@@H](C)CO)C(=O)c2cccc(NC(=O)c3cnccn3)c2O[C@@H]1CN(C)C(=O)NC1CCCCC1 | 0.973 ± 0.096 | –
30 | COc1cccc(C(=O)Nc2ccc3c(c2)OC[C@H](C)N(CCc2ccccc2)C[C@H](C)[C@@H](OC)CN(C)C3=O)c1 | 1.06 ± 0.031 | –
31 | C[C@H]1CN([C@@H](C)CO)C(=O)c2ccccc2-c2ccccc2CO[C@H]1CN(C)S(=O)(=O)c1cn(C)cn1 | 1.01 ± 0.12 | –
32 | CO[C@H]1CN(C)C(=O)c2cc(NC(=O)c3cnccn3)ccc2OC[C@H](C)NC[C@@H]1C | 1.04 ± 0.053 | –
33 | N#C[C@@H]1[C@@H](c2ccccc2C2=CCCC2)[C@H](CO)N1C(=O)C1CCOCC1 | 1.01 ± 0.015 | –
34 | CO[C@@H]1CN(C)C(=O)c2cc(NC(=O)c3nc4ccccc4s3)ccc2OC[C@H](C)NC[C@H]1C | 1.05 ± 0.059 | –
35 | COc1ccc(CNC(=O)c2cc3c(c(-c4cccc(-c5ccc(C#N)cc5)c4)n2)[C@@H](CCO)N([S@](=O)C(C)(C)C)C3)cc1 | 1.02 ± 0.065 | –
